# From article PMC4336329 (PLoS ONE, 2015)
# The whole screen tested about 310,000 compounds, of which about 14,000 (4.5%) showed an effect of 50% or more. The effect is printed as a negative number. Some of the results follow.
# Target: human ether-à-go-go-related gene (hERG) potassium channel (human, UniProt Q12809)
# Assay: primary screen, population patch clamp on CHO cells stably expressing hERG
# 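Also: peak tail current of the secondary pulse compared with the same well before compound.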
# human ether-à-go-go-related gene (hERG) potassium channel, sequence (Q12809 whole entry, looked up): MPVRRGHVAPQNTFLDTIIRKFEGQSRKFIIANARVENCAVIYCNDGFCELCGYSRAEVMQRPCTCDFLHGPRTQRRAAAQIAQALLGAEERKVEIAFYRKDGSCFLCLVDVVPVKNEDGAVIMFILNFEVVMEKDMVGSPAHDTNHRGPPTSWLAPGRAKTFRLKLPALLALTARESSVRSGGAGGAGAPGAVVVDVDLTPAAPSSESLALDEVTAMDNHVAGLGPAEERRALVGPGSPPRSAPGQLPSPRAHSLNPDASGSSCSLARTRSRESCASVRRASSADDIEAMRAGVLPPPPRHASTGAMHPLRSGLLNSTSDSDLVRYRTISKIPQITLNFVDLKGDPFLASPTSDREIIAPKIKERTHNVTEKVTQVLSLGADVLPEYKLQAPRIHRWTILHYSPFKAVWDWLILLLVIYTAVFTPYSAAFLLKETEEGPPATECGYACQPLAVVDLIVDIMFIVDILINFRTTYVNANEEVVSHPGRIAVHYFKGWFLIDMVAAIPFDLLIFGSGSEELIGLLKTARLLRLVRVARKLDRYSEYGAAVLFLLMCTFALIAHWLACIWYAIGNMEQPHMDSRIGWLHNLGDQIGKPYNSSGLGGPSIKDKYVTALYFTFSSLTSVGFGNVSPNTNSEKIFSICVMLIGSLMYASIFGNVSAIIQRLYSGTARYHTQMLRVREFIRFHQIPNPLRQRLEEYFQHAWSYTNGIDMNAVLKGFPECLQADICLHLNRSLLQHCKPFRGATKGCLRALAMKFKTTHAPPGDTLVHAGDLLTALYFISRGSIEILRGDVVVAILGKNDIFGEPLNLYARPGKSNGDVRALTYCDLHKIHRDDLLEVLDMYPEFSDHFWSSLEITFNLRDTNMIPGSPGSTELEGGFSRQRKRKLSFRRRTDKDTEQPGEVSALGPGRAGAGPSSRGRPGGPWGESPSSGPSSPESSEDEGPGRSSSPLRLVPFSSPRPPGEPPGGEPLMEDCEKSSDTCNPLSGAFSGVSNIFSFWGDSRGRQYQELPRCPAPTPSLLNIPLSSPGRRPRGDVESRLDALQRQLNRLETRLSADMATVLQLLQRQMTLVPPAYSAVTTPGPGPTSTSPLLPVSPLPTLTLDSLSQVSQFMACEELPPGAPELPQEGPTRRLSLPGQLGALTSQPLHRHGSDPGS
row,SMILES,"hERG current change (%, negative = inhibition) at 10uM"
1,COC(=O)c1ccc(CSc2nc3cc(Cl)ccc3o2)cc1,12.9%
2,COc1cc(C(=O)N/N=C/C23CC[C@@H](O)CC2(O)CC[C@@H]2[C@@H]3CCC3(C)C(C4=CC(=O)OC4)CCC23O)ccc1O (stereo partly drawn),27.4%
3,NC(=S)c1ccc(C(N)=S)o1,15.1%
4,CC(=O)NC(CC(=O)OC(C)C(=O)Nc1ccc(Cl)cn1)c1ccccc1 (stereo not drawn),-3.51%
5,Cc1ccc(Cl)cc1N1CCN(C(=O)C2CCC(=O)N2C(C)C)CC1 (stereo not drawn),-5.02%
6,O=S(=O)(c1ccc2c(c1)OCCO2)N1CCN(c2cccc(Cl)c2)CC1,3.55%
7,CN(Cc1ccc(O)cc1)C1CCCCC1,-16.7%
8,COc1ccc(/C=C/C(=O)Nc2ccc(S(=O)(=O)N3CCOCC3)cc2)c(OC)c1,-3.51%
9,COc1cccc(Nc2nc3ccc(OC)cc3s2)c1,8.8%
10,Cc1ccc(-c2csc(NC(=O)c3ccc(F)cc3)c2C(=O)O)cc1,34.7%
11,O=C(O)c1ccc(N2C(=O)/C(=C/C=C/c3ccccc3)SC2=S)cc1,0.894%
12,O=C(Nc1cccc(O)c1)C(Cc1ccccc1)N1C(=O)c2cccc3cccc(c23)C1=O (stereo not drawn),11%
13,COC(=O)c1cc(S(=O)(=O)N(C)C2CCCCC2)oc1C,-3.75%
14,Cc1ccc(C)c(-c2nc3ccc(N)cc3[nH]2)c1,-15.5%
15,O=C1CC(C(F)(F)F)=NN1,16.9%
16,CC(C)c1ccc(-c2cc(C(=O)NN3CCN(C)CC3)c3ccccc3n2)cc1,-3.79%
17,CCOCCCNC(=O)CN1CCN(S(=O)(=O)c2ccc3c(c2)CCC3)CC1,3.99%
18,Cc1ccc(CNCC(=O)Nc2ccc(N3CCOCC3)cc2)cc1.O=C(O)C(=O)O,-13.6%
19,Cc1ccc(-c2nc(Nc3ccc(O)cc3)c3ccccc3n2)cc1,22.4%
20,CCN(CCCNC(=O)CCn1c(=S)[nH]c2cc3c(cc2c1=O)OCO3)c1cccc(C)c1,12.9%
21,Cc1ccc2cc(C)c3nnc(SCC(=O)NCc4ccco4)n3c2c1,-25.5%
22,CN(C)S(=O)(=O)N1CCC(c2ccc(F)cc2)C(COc2ccc3c(c2)OCO3)C1 (stereo not drawn),10.2%

row,SMILES,"hERG current change (%, negative = inhibition) at 10uM"
1,Cc1nnc(SCC(=O)N2CCN(S(=O)(=O)c3ccc(Cl)cc3)CC2)n(N)c1=O,-19%
2,CS(=O)(=O)c1ccccc1-c1nc(-c2cccc(Cl)c2)no1,-12.9%
3,CCOCN(C(=O)Cn1cnc2ccccc21)c1c(C)cccc1CC,1.74%
4,COc1cc(C2C3=C(CCCC3=O)OC3=C2C(=O)CCC3)ccc1OCC(=O)Nc1ccccc1,-30.9%
5,CCCn1c(NC(=O)CN2C(=O)NC3(CCCCC3)C2=O)nc2ccccc21,-19.1%
6,O=C(Cn1cc(C(=O)C2CC2)c2ccccc21)NC1CCCC1,16.3%
7,O=C(Nc1ccc2ccccc2n1)Nc1ccccc1F,16.6%
8,O=C(O)c1cccc(N2CCCCS2(=O)=O)c1,15.8%
9,OCCC1CN(Cc2cc(F)ccc2-n2cccn2)CCN1C1CCCC1 (stereo not drawn),-29%
10,Cc1cc(C)c2c(N)c(C(=O)Nc3ccc([N+](=O)[O-])cc3)sc2n1,20.2%
11,Cc1ccc2c(c1)cc(CN(Cc1ccc3c(c1)OCO3)C(=O)c1ccccc1)c1nnnn12,-11.5%
12,CCCCCCCCC(=O)NCc1ccc(O)c(OC)c1,-17.1%
13,COC(=O)c1ccc(-n2c(C)cc(C(=O)CSc3cccc[n+]3[O-])c2C)cc1,21.2%
14,Cc1ccc2c(c1)nnc1nnc(SCC(=O)O)n12,3.45%
15,Cc1ccc(NC(=O)CCSc2nnc(-c3ccco3)o2)cc1,9.02%
16,CCOc1ccc(-n2c(C)cc(C(=O)NS(=O)(=O)c3ccc(C)cc3)c2C)cc1,-32.3%
17,O=C(CN1CCN(S(=O)(=O)c2ccccc2F)CC1)Nc1ccnn1C1CCCC1,-25.8%
18,CCC(=O)c1cn(CC(=O)Nc2cc(C)ccc2C)c2ccccc12,13.4%
19,CCCCOC(=O)c1ccc(N=Nc2c(C)c(C#N)c(O)[nH]c2=O)cc1,-2.34%
20,COc1ccc(S(=O)(=O)N2CCCCC2)cc1NC(=O)CCCOc1ccccc1,-9.13%
21,COc1ccc([C@@H]2[C@@H]3C(=O)N(C(C)(C)C)C(=O)[C@@H]3[C@]3(Cc4ccc(Cl)cc4)C(=O)N(c4cccc(Br)c4)C(=O)N23)cc1,12.7%
22,O=C(CSc1nc2ccc([N+](=O)[O-])cc2[nH]1)c1ccc(Cl)cc1,12.1%

row,SMILES,"hERG current change (%, negative = inhibition) at 10uM"
1,Cn1c(=O)c2ncn(CC(=O)NCCOc3ccccc3)c2n(C)c1=O,-4%
2,COc1ccc(C(=O)CC(c2ccccc2)S(=O)(=O)c2ccc(C)cc2)cc1 (stereo not drawn),8.03%
3,CCCCNC(=S)NNC(=O)CCn1cc(C)cn1,26.3%
4,CN1C(=O)C2(C(C#N)=C(N)N(c3cc(Cl)cc(Cl)c3)C3=C2C(=O)CCC3)c2ccccc21 (stereo not drawn),8.51%
5,CC(=O)Nc1cccc(/C(C)=N/NS(=O)(=O)c2ccc(C)cc2)c1,23.5%
6,Cc1c(C(=O)N2CCOCC2)sc(NC(=O)C(C)C)c1C#N,24.9%
7,Cc1nn(-c2ccccc2)c(C)c1-c1cc(C(=O)N/N=C/c2ccc(O)cc2)[nH]n1,0.357%
8,S=c1[nH]nc(COc2ccc(Cl)cc2)n1C1CCCCC1,14.3%
9,CCN1CCc2c(sc(NC(=O)c3ccc(S(=O)(=O)N(CC)c4ccccc4)cc3)c2C(N)=O)C1,15.4%
10,COc1cccc(-n2nc3c(=S)[nH]nc(C)c3c2C)c1,18.3%
11,Cc1ccc(/C=C/C(=O)Nc2cccnc2)o1,-11.2%
12,COC(=O)c1cnc(SCc2ccc(C)cc2)n1C,-14.2%
13,COc1cccc(C(=O)/C=C/Nc2ccc(NC(C)=O)cc2)c1,-6.12%
14,COc1cc(CNCc2ccccn2)ccc1OCC(=O)NC1CCCCC1.Cl,-14.5%
15,COc1ccc(C(C)=O)cc1COC(=O)c1ccc(N)c([N+](=O)[O-])c1,35.1%
16,O.O=c1c(=O)n(O)c2ccccc2n1O,-0.56%
17,CC(=O)N1CCN(S(=O)(=O)c2ccc(Cl)cc2F)CC1,12.9%
18,CC(C)CC(=O)NS(=O)(=O)c1ccc(NS(C)(=O)=O)cc1,11.7%
19,Cc1cccc2nc(-c3ccco3)c(Nc3ccc4c(c3)OCO4)n12,7.6%
20,Fc1ccc2nc(C3CCN(Cc4nc(CC5CC5)no4)CC3)[nH]c2c1,-51.9%
21,CCOC(=O)C1CCN(C(=S)Nc2cc(C)ccc2C)CC1,2.4%
22,CC(=O)C1=C(O)C(=O)N(c2ccc(O)cc2)C1c1ccc(Cl)cc1 (stereo not drawn),17.4%

row,SMILES,"hERG current change (%, negative = inhibition) at 10uM"
1,CCC(C)OC(=O)C1=C(C)NC(=O)CC1c1ccccc1OC (stereo not drawn),-14.2%
2,O=C(CSc1ccc(-c2cccc([N+](=O)[O-])c2)nn1)NCc1ccccc1,-9.8%
3,CCc1nnc(SCc2ccc([N+](=O)[O-])cc2)nc1CC,-32.7%
4,C/C=C/C=C/C(=O)OC(C)C(=O)Nc1cc([N+](=O)[O-])ccc1OC (stereo not drawn),-12.5%
5,COC(=O)c1cnn2c(C(F)(F)F)cc(-c3ccc(F)cc3)nc12,-8.38%
6,CC1=CC(C)(C)N(C(=O)CSc2nnc(-c3ccc(C)cc3)o2)c2ccc(C)cc21,-11.5%
7,CCOC(=O)CN(Cc1sccc1C)C(=O)Nc1ccc(OCC)cc1,-9.03%
8,CC(=O)Nc1ccnc(-c2cccnc2)n1,7.89%
9,CC(C)CCn1nnnc1CN1CCN(C(=O)c2ccco2)CC1.Cl,16.8%
10,COCC(=O)N1CCN(c2cccc(Cl)c2)CC1,-8.46%
11,COc1ccc(/C=N/NC(=O)c2ccc(CSc3nncn3C)cc2)cc1OC,6.26%
12,CCN(CC(=O)Nc1ccc(OC)c(Cl)c1)CC(=O)NC(C)C,9.17%
13,COCC(C)NC(=O)c1noc2c1CCc1cc(OC)ccc1-2 (stereo not drawn),-25.9%
14,CN1/C(=C\C(=O)C[n+]2cccc(C(N)=O)c2)C(C)(C)c2ccccc21.[Cl-],22.4%
15,COCCNc1ccc(N2C(=O)CCCC2=O)cc1[N+](=O)[O-],19%
16,Cn1c(=O)n(C)c2cc([N+](=O)[O-])c(N3CCN(S(C)(=O)=O)CC3)cc21,6.17%
17,C/C(CC(=O)Nc1cccnc1)=N\NC(=O)c1ccc([N+](=O)[O-])c(Cl)c1,-21.3%
18,CCOc1cc(C(=O)Nc2cc(F)ccc2C)ccc1OCC(=O)N1CCOCC1,-17.8%
19,Cc1ccc(Oc2ccc(NC(=O)CSc3n[nH]c(N)n3)cc2)cc1,-1.71%
20,CN1CCC23c4ccccc4NC1C21CCN(C)C3Nc2ccccc21,0.813%
21,CCOc1ccc(C(=O)NCC(=O)N2CCCCCCC2)cc1,-9.52%
